About 3,600 (1.6%) of roughly 230,000 compounds were called active. Inconclusive means that the source gave no clear call. Such entries were picked first, then a sample of the others. The call rests on the fitted dose curve; in most records, active means well fitted inhibition curve with a large enough effect (not every such curve was filed as active); inconclusive means small, poorly fitted or top-dose-only effect, or another doubt; inactive means no such curve, though single readings can be large or run the other way. Potencies beside an inconclusive call are fits to weak or partial responses and may not hold up.
biological target: Lysine-specific demethylase 4E (Homo sapiens) (UniProt B2RXH2); assay: qHTS Assay for Inhibitors of Human Jumonji Domain Containing 2E (JMJD2E); settings: JMJD2E catalytic domain, FDH-coupled NADH fluorescence (FDH is formaldehyde dehydrogenase); series mostly up to 57.1 µM; activity change, negative = inhibition: at the top concentration
Further: nearly all actives have a fitted effect of over 50% in size.
Potency means the concentration at half of the fitted maximal effect; tags describe the fitted curve by direction and shape.
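Wherever activity change, negative = inhibition is given: 0% = wells with enzyme and -100% = buffer wells without enzyme.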

UniProt B2RXH2, sequence (B2RXH2 whole entry, looked up, the tested form may be a part): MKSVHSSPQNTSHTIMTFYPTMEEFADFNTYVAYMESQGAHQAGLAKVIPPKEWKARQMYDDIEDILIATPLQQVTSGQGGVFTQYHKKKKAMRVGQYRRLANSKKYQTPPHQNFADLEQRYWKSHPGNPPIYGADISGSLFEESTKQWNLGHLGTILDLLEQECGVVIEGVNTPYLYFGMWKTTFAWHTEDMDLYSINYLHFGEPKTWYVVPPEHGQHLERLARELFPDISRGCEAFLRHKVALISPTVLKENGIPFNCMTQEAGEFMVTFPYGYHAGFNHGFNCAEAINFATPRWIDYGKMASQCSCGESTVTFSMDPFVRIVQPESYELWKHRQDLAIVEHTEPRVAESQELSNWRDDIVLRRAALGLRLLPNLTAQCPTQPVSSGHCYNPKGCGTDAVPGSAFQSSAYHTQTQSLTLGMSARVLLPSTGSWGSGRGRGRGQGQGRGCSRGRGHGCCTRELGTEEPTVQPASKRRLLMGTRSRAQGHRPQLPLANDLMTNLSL

Structure (SMILES)	Potency	activity change, negative = inhibition
O=C(/C=C\Nc1ccccc1Br)c1ccc2c(c1)OCO2	inconclusive: 39.8 µM [inhibitor, single point]	
CCCOc1ccc(C2C(=O)N(C3CCCCC3)CC(=O)N2CCCOCC)cc1OC (centres undefined)	inconclusive: 28.2 µM [inhibitor, partial curve]	
COc1ccccc1-c1nc(C#N)c(N2CCN(c3cccc(Cl)c3)CC2)o1	inconclusive: 3.16 µM [inhibitor, partial curve]	
CCCCCCC(=O)Nc1nc(C)c(-c2csc(Nc3cc(OC)ccc3OC)n2)s1		inactive: -21.4%
O=C(O)c1ccc(-c2nc(-c3cccc(C(F)(F)F)c3)cs2)cc1	inconclusive: 31.6 µM [inhibitor, partial curve]	
CCCCSc1nnc(-c2ccccc2N)c(=O)[nH]1	inconclusive: 39.8 µM [inhibitor, single point]	
COc1cccc(-c2cc(C(=O)Nc3cnn(Cc4ccc(F)cc4)c3)no2)c1	inconclusive: 39.8 µM [inhibitor, single point]	
CC(C)c1ccccc1NC(=O)COC(=O)c1c2c(nc3ccccc13)CCN(Cc1ccccc1)C2	inconclusive: 39.8 µM [inhibitor, single point]	
Nc1ccccc1C(=O)NNc1c2ccccc2nc2ccccc12		inactive: -28.7%
O=c1ccc(/C=C/c2ccccc2)nn1Cc1ccccc1Cl	inconclusive: 25.1 µM [inhibitor, partial curve]	
CC(C)c1cccc2c([Si](C)(C)C)c3c(nc12)-c1cccc(=O)n1C3	inconclusive: 28.2 µM [inhibitor, partial curve]	
CC(C)CCN1NC2(CCCC(C)C2)NC1=S (centres undefined)	inconclusive: 39.8 µM [inhibitor, single point]	
CC1(C)OC(=O)C(=CNc2ccccc2F)C(=O)O1		inactive: -2.5%
Cc1ccc(Nc2nc(N)c([N+](=O)[O-])c(NCc3ccccc3)n2)cc1		inactive: -0.126%
CCOC(=O)c1c(NC(=O)c2ccc(Br)o2)sc(C)c1CC	inconclusive: 28.2 µM [inhibitor, partial curve]	
CCC(=O)Nc1ccc2c(c1)C(=O)N(C1CCCCC1)C2=O	inconclusive: 25.1 µM [inhibitor, partial curve]	
C/C=C(/C)C(=O)OC1C(OC(C)=O)[C@@]2(CO)C(O)C[C@@]3(C)C(=CCC4[C@@]5(C)CCC(OC6OC(C(=O)O)[C@@H](O[C@@H]7OC(CO)C(O)C(O)C7O)C(O)[C@H]6O[C@@H]6OC(CO)C(O)C(O)C6O)[C@](C)(CO)C5CC[C@@]43C)C2CC1(C)C (some centres undefined)	inconclusive: 35.5 µM [inhibitor, single point]	

Structure (SMILES)	Potency	activity change, negative = inhibition
O=C(Nc1ccc2cn[nH]c2c1)c1ccc(Cl)c(S(=O)(=O)N2CCOCC2)c1	inconclusive: 39.8 µM [inhibitor, single point]	
Cc1cc(C)c2c(N)c(C(=O)NN)sc2n1	inconclusive: 25.1 µM [inhibitor, partial curve]	
O=C(Nc1ccccc1Cl)O/N=C(/c1ccccc1)c1ccccn1	inconclusive: 39.8 µM [inhibitor, single point]	
COc1ccc(CC(=O)N2CCN(c3ccccn3)CC2)cc1OC	inconclusive: 28.2 µM [inhibitor, partial curve]	
COc1ccc(C(=O)Nc2ccc(Cl)cc2C(=O)NCCN2CCOCC2)cc1		inactive: -1.64%
COc1cc(Cl)ccc1NC(=O)COc1ccccc1C(=O)N1CCN(c2ccc(O)cc2)CC1		inactive: -14.8%
O=C(NCCN1CCCCC1)c1cc2ccccc2[nH]1	inconclusive: 28.2 µM [inhibitor, single point]	
Cc1ccc2oc(=O)c3cc(C(=O)Nc4cc(-c5cccc(F)c5)no4)sc3c2c1	inconclusive: 25.1 µM [inhibitor, single point]	
Cc1cccc(C(=O)NC(=S)NNC(=O)c2ccccc2Cl)c1	inconclusive: 39.8 µM [inhibitor, single point]	
Cc1cc(NC(=O)CSc2nnnn2-c2ccccc2)no1		inactive: -18.1%
NC(=O)c1c(NC(NC(=O)c2ccco2)C(=O)c2ccc(Cl)cc2)sc2c1CCCC2 (centres undefined)	inconclusive: 25.1 µM [inhibitor, partial curve]	
Cc1cc(=O)c2n(Cc3ccc(Cl)cc3)nc[n+]2[nH]1		inactive: 4.37%
COc1ccc(C(N)CCc2ccco2)cc1 (centres undefined)	inconclusive: 39.8 µM [inhibitor, single point]	
CCN(CC)C(=O)C1CCCN(c2ccc([N+](=O)[O-])cc2/C=N/NC(=O)c2ccccc2)C1 (centres undefined)		inactive: -13%
O=C(C#Cc1ccccc1)c1ccc([N+](=O)[O-])cc1		inactive: 4.72%
CC(=O)c1c(C)[nH]c(C(=O)Nc2nccs2)c1C		inactive: -0.0626%
O=[N+]([O-])c1cc2c(cc1/C=N/Nc1nc(N3CCCC3)nc(N3CCCC3)n1)OCO2		inactive: 7.11%

Reference: PubChem BioAssay AID2147 (National Center for Advancing Translational Sciences (NCATS), 2009)
